Out of some 150,000 compounds screened, about 540 (0.36%) showed an effect of 50% or more. This is one part of the list.

The subject of the assay is Plasmodium falciparum. Briefly: Primary screen in NF54 nanoGlo assay, in single point, at 2uM, 72h; a lower Z score goes with more inhibition. Type of assay: functional, Erythrocyte. The note with it: timepoint 72 hour.
`COCc1nc(N2CCC(c3n[nH]cc3C)CC2)cc([C@H]2C[C@@H](N)C2)n1`: the % Inhibition (commonly the change of the read-out against control, counted positive when it falls) was -6% and the Z score is reported as 0.99.
In the case of `CCN(CCn1cccn1)c1nncc(-c2cc3ccccc3o2)n1`, the “% Inhibition” value is -23% and the Z score is on record as 2.98.
For the compound `O=C(c1ccc(Br)o1)n1cccn1`, the “% Inhibition” value is given as -7% and the Z score turned out to be 0.83.
Take `Cc1noc(C(C)NC(=O)C2CCCN2c2ncnc3sccc23)n1` (stereo not given): the “% Inhibition” value is reported as 3% and the Z score is recorded as -0.44.
Take `CC(C)(C)C(=O)NC[C@H]1CCN(C/C=C/c2ccccc2)C1`: the “% Inhibition” value is given as 4% and the Z score is listed as -0.56.
Consider `COCCN1CCCn2nc([C@H]3CCCN(Cc4cc(F)cc(F)c4)C3)cc2C1=O`, for which the “% Inhibition” value is -18% and the Z score was determined as 3.35.
As for `COc1ccc(Cl)cc1NC(=O)c1cn2c(n1)COCC2`, the “% Inhibition” value is recorded as -11% and the Z score is 1.72.
Consider `O=C(NC1Cc2ccccc2C1)c1ccc2c(c1)OCCO2`, for which the “% Inhibition” value is given as -13% and the Z score is reported as 1.28.
Consider `CCOC(=O)Cc1csc(NC(=O)CCc2c(C)[nH]c(=O)n(C)c2=O)n1`, for which the “% Inhibition” value came out at 2% and the Z score is -0.25.
On to `Cc1ccc(C(=O)N2C[C@@H](CO)[C@H](NC(=O)c3ccccc3)C2)cc1F`, for which the “% Inhibition” value was -8% and the Z score came out at 1.32.
The matching figures for `CC(C)[C@H]1C=CCN1C(=O)c1ccc(CCC(C)(C)O)cc1`: -2% and 0.32.
As for `C[C@H]1CN(C2=Nc3ccc(C(F)(F)F)cc3Oc3ccccc32)CCN1C(=O)C1CCCCC1`, the “% Inhibition” value was -10% and the Z score was found to be 0.96.
The matching figures for `CCOc1ccc(OCc2snnc2C)cc1`: 2% and -0.39.
For `CC(C)(C)c1ccc(C2(NS(=O)(=O)CC#N)CC2)cc1`, in that order: -15% and 1.3.
On to `Cc1cnc(NC2CCC(O)CC2)nc1NC1CCC(O)CC1` (stereo not given), for which the “% Inhibition” value is 8% and the Z score was -1.06.
For `CCn1c(-c2ccccc2)nnc1N1CCN(C(C)=O)C[C@@H]1C`, in that order: -4% and 0.83.
For `CCOc1ccc(Nc2c(C(=O)N3CCOCC3)cnc3nc(C)ccc23)cc1`, the “% Inhibition” value was -5% and the Z score is 0.78.
For `Cc1cc(-c2cccc(C(=O)N(C)Cc3noc(C4CC4)n3)c2)ccc1Cl`, the “% Inhibition” value is on record as -15% and the Z score was 1.52.
For the compound `O=c1[nH]cnc2c1CN(c1cncc(OC3CCCCC3)n1)CC2`, the “% Inhibition” value is on record as -16% and the Z score turned out to be 2.11.
The matching figures for `CC(C)c1nnc(CN2CC3C4CCC(O4)C3C2)o1` (stereo not given): -5% and 0.65.
`CC[C@@H](C(=O)N(C)C)N(C)Cc1nncn1CC`: the “% Inhibition” value is on record as 4% and the Z score is -0.55.
The matching figures for `CCCCC(=O)N1CCC[C@H](c2cc(N3CCOCC3)nc(C)n2)C1`: -2% and 0.28.
As for `CC(C)(C)C(=O)N1CC(N2C(=O)COC2=O)C1`, the “% Inhibition” value is -9% and the Z score is 1.06.
In the case of `Cc1onc(C(=O)N2CC[C@@H](n3c(=O)n(C)c4cccnc43)C2)c1Cn1cccn1`, the “% Inhibition” value was -13% and the Z score is 1.65.
For `Cc1ocnc1C(=O)N1CCC[C@H]1c1nccs1`, in that order: -15% and 2.02.
For the compound `CCCC[C@@H](COC)NC(=O)NC1CCC(O)CC1` (stereo not given in full), the “% Inhibition” value was -10% and the Z score stood at 1.96.
For the compound `Cc1csc([C@H](C)NC(=O)C2(N3CCCC3)CCCCC2)n1`, the “% Inhibition” value was -19% and the Z score amounted to 2.4.
Turning to `CC(C)n1cnnc1CNC1CCN(c2nnc(-c3ccccc3)s2)CC1`, the “% Inhibition” value is reported as -9% and the Z score worked out at 1.34.
For `O=C(Nc1cccc(CO)c1)C1=CCCCO1`, in that order: -9% and 1.08.
For `c1cc2c(cc1CN1CCC[C@H](Nc3ccc4c(c3)OCO4)C1)CCO2`, in that order: -12% and 1.46.
For the compound `CC(C)c1cc(C(=O)NCC2CCN(S(=O)(=O)c3cccs3)CC2)on1`, the “% Inhibition” value is given as 2% and the Z score is listed as -0.38.
For `O=C([C@H]1CCCN(c2nnc(N3CCCCC3=O)s2)C1)N1CCN(c2ccccc2)CC1`, the “% Inhibition” value worked out at 10% and the Z score is -1.91.
For `O=C(COc1ccc2ccccc2c1)Nn1cnc2ccccc2c1=O`, the “% Inhibition” value is given as 3% and the Z score is -0.42.
`CNS(=O)(=O)Nc1ccc(NC(=O)C2CC(=O)C2)cc1`: the “% Inhibition” value is -10% and the Z score stood at 1.14.
With `COCCNCc1csc(COc2cccc3ccccc23)n1`, the “% Inhibition” value is recorded as -5% and the Z score is 0.88.
As to `COc1nnc(NC(=O)N2CCC[C@H]2c2cccs2)s1`, the “% Inhibition” value is recorded as -11% and the Z score came out at 1.66.
`CC1(C)OC[C@H](CNC(=O)c2cncn2-c2ccc(-c3ccc(F)c(F)c3)cc2)O1`: the “% Inhibition” value is 3% and the Z score is reported as -0.38.
The matching figures for `Cc1cc(C(=O)Nc2ccccc2-c2cn3c(n2)CCCC3)n(C)n1`: 13% and -1.72.
Take `COC(C)(C)c1cn(Cc2csc(C)n2)nn1`: the “% Inhibition” value is listed as -17% and the Z score is given as 2.31.
The matching figures for `Cc1ccc(F)cc1NCc1cncn1C`: 0% and -0.04.
As to `NC[C@@H](C(=O)N1CCc2sccc2C1)c1ccccc1`, the “% Inhibition” value is reported as -3% and the Z score came to 0.4.
Take `CCOC(=O)[C@@H]1CC[C@H](NC(=O)N2CCOC(CC)C2)C1` (stereo not given in full): the “% Inhibition” value is given as -7% and the Z score is given as 0.73.
Take `CN1CCN(c2ccnc(NC(=O)c3ccc4c(c3)NC(=O)C4(C)C)c2)CC1`: the “% Inhibition” value was found to be 3% and the Z score is given as -0.48.
Take `Cc1nc(Cn2ccnc2[C@H](O)c2ccc(F)cc2)no1`: the “% Inhibition” value is recorded as -9% and the Z score amounted to 1.21.
For `Cc1cc(C(=O)N2C[C@H]3CC[C@@H](C2)[C@H]3O)c(C)o1`, in that order: -18% and 1.83.
As to `Cc1cnc2c(Cl)c(C(=O)NCCS(=O)(=O)N3CCCC3)nn2c1`, the “% Inhibition” value was -7% and the Z score amounted to 0.8.
Turning to `CC(C)Cn1ncnc1CN1CCOc2ccc(F)cc21`, the “% Inhibition” value is listed as -6% and the Z score is 0.82.
Consider `CCOC(=O)N1CCN(C(=O)C[C@@H]2N=C(O)N(c3cccc4ccccc34)C2=O)CC1`, for which the “% Inhibition” value is 4% and the Z score is on record as -0.57.
With `COc1ncc(NC(=O)c2ccc(Br)o2)cn1`, the “% Inhibition” value came to 0% and the Z score was determined as 0.
Turning to `O=C(CCc1cc2n(n1)CCCN(Cc1cccc(O)c1)C2)N1CCCC1`, the “% Inhibition” value is reported as -23% and the Z score was determined as 2.81.
As to `NC(=O)c1c(NC(=O)CN2CCC[C@H](CN3CCN(c4ccccn4)CC3)C2)sc2c1CCCC2`, the “% Inhibition” value is given as -1% and the Z score is reported as 0.15.
`C=CCNC(=O)CN(C)C1CCCCC1`: the “% Inhibition” value was -4% and the Z score is 0.43.
Take `COc1ccc(-n2nc(C(=O)Nc3nc4ccc(OC)cc4s3)c3ccccc3c2=O)c(OC)c1`: the “% Inhibition” value turned out to be 16% and the Z score is listed as -1.91.
As for `CN(C)CCN(C(=O)c1ccc(S(=O)(=O)N(C)C[C@H]2CCCO2)cc1)c1nc2c(F)cccc2s1`, the “% Inhibition” value is 16% and the Z score was -2.07.
The matching figures for `Cc1cccc(CCNC(=O)NC2c3cccc(F)c3CCC2C)n1` (stereo not given): -2% and 0.16.

The values are drawn from ChEMBL document CHEMBL4888484, “Replenishing the malaria drug discovery pipeline: Screening and hit evaluation of the MMV Hit Generation Library 1 (HGL1) against asexual blood stage Plasmodium falciparum ,using a nano luciferase reporter read-out” (2022).
